# Where a name gives a salt, the structure may show the parent alone. The name of at least one read-out is uncertain.
# Columns and labels:
# Type in all cases: cell-based
# NMDA receptor [1] = test: Whole cell patch clamp, NMDA-induced current in cultured chick spinal cord neurons; details: for Change of response (%), 30 μM NMDA-induced response: mean ± S.E.
# Procedure: Cultures of dissociated spinal cord neurons were prepared as previously described (Farb, D. H., et al., J. Cell Biol., 80:651-661 (1979)). Briefly, the dissociated cells from 7-day chick embryos were plated on collagen-coated 35-mm tissue culture dishes in Eagle's minimum essential medium supplemented with 2.4 mM glutamine, 10% (v/v) heat-inactivated horse serum, 5% (v/v) chick embryo extract and antibiotics. Cultures were maintained in a humidified atmosphere of 5% CO2, 95% air at 37°. Cytarabine (1 μM) was added to the culture medium after 36 hr. of the initial plating to inhibit the proliferation of non-neuronal cells. One day later, this medium was replaced with a similar medium supplemented with 20.5 mM glucose, 19 mM KCl, and 2.5% chick embryo extract. Fresh medium was added twice weekly. Cultured neurons were used in experiments within 2-4 weeks after plating.
# (§1) Experiments were carried out in 35-mm tissue culture dishes on the stage of an inverted phase contrast microscope. Whole cell currents were recorded by the whole cell variant of the patch clamp technique (Hamill, O. P., et al., Pfagers Arch. 891:85-100 (1981)). Patch electrodes had tip openings of about […] and resistances of 3-8 M.OMEGA. using an intracellular solution comprised of the following (in mM): 140 CsCl, 11 EGTA, and 10 HEPES (pH adjusted to 7.2 with CsOH). In experiments in which a high concentration of glycine was used, the intracellular solution was replaced with a low chloride (10 mM) pipette solution. This solution contained the following (in mM): 140 potassium gluconate, 10 KCl, 8 sodium gluconate, 11 EGTA, and 10 HEPES (pH adjusted to 7.2 with KOH). To prevent a marked run-down of NMDA-induced current at high NMDA concentrations, 4 mM potassium ATP was included in the intracellular solution. The bath solution contained the following (in mM): 150 NaCl, 4 KCl, 1 CaCl2, and 10 HEPES (pH adjusted to 7.2 with NaOH). No glycine was added to the solutions containing NMDA, because no additional glycine was required to obtain a robust NMDA response, and there was no effect of a maximal concentration (10 μM) of glycine on 5β3αS inhibition of the NMDA response. All experiments were performed at room temperature (23-25° C.).
# Recordings were made using an Axopatch 1B patch clamp apparatus (Axon Instruments, Burlingame, Calif.). Cells with series resistances greater than 10 M.OMEGA. were rejected. After partial compensation, series resistances were between 3.5 and 6 M.OMEGA.. The holding potential was maintained at -70 mV unless otherwise noted. Currents were filtered at 1 kHz using an eight-pole Bessel filter (-3 dB) and digitized ([…]) using an on-line data acquisition system (pClamp, Axon Instruments).
# Drug solutions were applied to single neurons by pressure ejection (15 psi) from seven-barrel pipettes. Seven-barrel pressure pipettes were positioned approximately […] from the neuronal soma. Under these conditions, the drug solution in the pressure pipette rapidly and effectively replaces the solution surrounding the target neurons with less than 10% dilution (Choi, D. W., et al., Nature (Lond.) 269:342-344 (1977); Chan, C. Y., et al., Life Sci., 83:2061-2069 (1983); Chan, C. Y. and Farb, D. H., J. Neurosci., 5:2365-2373 (1985)). All drugs were obtained from Sigma, with the except of AMPA hydrobromide (Research Biochemicals) and steroids (Steraloids). Stock solutions of steroids were prepared in dimethyl sulfoxide, the final concentration of which was 0.5% (v/v). To obviate the possible effects of dimethyl sulfoxide on the relevant agonist-induced currents, all other drug solutions including NMDA, kainate, AMPA and external buffer (in the pressure pipette) also contained 0.5% dimethyl sulfoxide. […]
# NMDA receptor [2] = test: Electrophysiology, NMDA response in rat hippocampal neurons
# Procedure: as §1
# Drug solutions were applied to single neurons by pressure ejection (15 psi) from seven-barrel pipettes. Seven-barrel pressure pipettes were positioned approximately […] from the neuronal soma. […]
# The degree of modulation of the amino acid response by steroid, the percentage change, is expressed as [(I'/I)-1]×100%, where I is the average of control responses obtained from the same cell before application and after washout of steroid and I' is the agonist-induced current in the presence of steroid. Throughout, results are expressed as mean±S.E.; statistical comparison of groups was carried out using Student's t test.
# The electrophysiology of additional pregnenolone derivatives were analyzed as described in Example 1. […]
# [3] = system: glutamate receptor-mediated spontaneous EPSCs in rat hippocampal neurons; test: Spontaneous excitatory postsynaptic currents (EPSCs), whole-cell recording in cultured hippocampal neurons; details: voltage-clamped at -70 mV
# Procedure: Primary cultures of hippocampal neurons were prepared from embryonic day 18 rats. Cultured neurons were used in experiments 2-3 weeks after plating.
# Spontaneous excitatory postsynaptic currents were recorded by the whole-cell variant of the patch clamp technique. The pipet solution usually contained (in mM) KCl 10, EGTA 11, sodium gluconate 3, potassium gluconate 140 and HEPES 10, adjusted to pH 7.2 with KOH. The bath solution contained (in mM) NaCl 150, KCl 4, CaCl2 1, and HEPES 10, adjusted to pH 7.2 with NaOH. Because NMDA-induced currents are subject to voltage-dependent block by extracellular Mg^2+, no magnesium salts were added to the bath solution. All records were made with the cell membrane potential clamped at -70 mV, which is very close to the Cl- equilibrium potential. Therefore, IPSCs are not expected to be observed and spontaneous activity should consist of EPSCs. The complete blockage of spontaneous activity by the co-application of the NMDA receptor antagonist APV and the non-NMDA receptor antagonist DNQX argues that the observed spontaneous activity is glutamate receptor-mediated.
# Drug solutions were applied to single neurons by pressure ejection (15 psi) from 7-barrel pipets (tip opening ~3-5 μm) positioned ~50 μm from the neuronal soma. […]
# [4] = steroid concentration not printed in the row
smiles,measurement,setting,value
"CC(=O)[C@H]1CC[C@H]2[C@@H]3CC[C@@H]4C[C@H](O)CC[C@]4(C)[C@H]3CC[C@]12C [5β3α, reference compound]","Change of response (%), 30 μM NMDA-induced response",NMDA receptor [1]; steroid 10 μM,-3.4 ± 3.5%
same,"Change of response (%), 30 μM NMDA-induced response",NMDA receptor [1]; steroid 50 μM,+3.6 ± 3.4%
"CC(=O)[C@H]1CC[C@H]2[C@@H]3CC[C@@H]4C[C@H](OC(=O)CCC(=O)O)CC[C@]4(C)[C@H]3CC[C@]12C [5β3αHS, 3α-hydroxy-5β-pregnan-20-one hemisuccinate]","% Change of response (30 μM NMDA-Induced Current or NMDA Response), rat hippocampal neurons",NMDA receptor [2]; [4],-18.0 ± 8.0%
"CC(=O)[C@H]1CC[C@H]2[C@@H]3CC[C@@H]4C[C@H](OS(=O)(=O)O)CC[C@]4(C)[C@H]3CC[C@]12C [5β3αS, 3α-hydroxy-5β-pregnan-20-one sulfate]","% Change of response (30 μM NMDA-Induced Current or NMDA Response), chick spinal cord neurons",NMDA receptor [1]; steroid 100 μM,-66 ± 2.7%
same,"Change of response (%), 30 μM NMDA-induced response",NMDA receptor [1]; steroid 100 μM,-66.1 ± 2.7%
same,"% Change of response (30 μM NMDA-Induced Current or NMDA Response), rat hippocampal neurons",NMDA receptor [2]; steroid 100 μM,-36.5 ± 2.1%
"CC(=O)[C@H]1CC[C@H]2[C@@H]3CC[C@@H]4C[C@@H](OS(=O)(=O)O)CC[C@]4(C)[C@H]3CC[C@]12C [5β3βS, 3β-hydroxy-5β-pregnan-20-one sulfate]","% Change of response (30 μM NMDA-Induced Current or NMDA Response), chick spinal cord neurons",NMDA receptor [1]; steroid 100 μM,-59 ± 3%
CC(=O)[C@H]1CC[C@H]2[C@@H]3CC=C4C[C@@H](OS(=O)(=O)O)CC[C@]4(C)[C@H]3[C@@H](O)C[C@]12C [11β-OH-pregnenolone sulfate],"% Change of response (30 μM NMDA-Induced Current or NMDA Response), chick spinal cord neurons",NMDA receptor [1]; steroid 100 μM,-31 ± 2%
C[C@]12CC[C@@H]3c4ccc(OC(=O)CCC(=O)O)cc4CC[C@H]3[C@@H]1CC[C@@H]2O [17β-estradiol hemisuccinate],"% Change of response (30 μM NMDA-Induced Current or NMDA Response), rat hippocampal neurons",NMDA receptor [2]; [4],-41 ± 7.0%
"C[C@]12CC[C@H](OS(=O)(=O)O)CC1=CC[C@@H]1[C@@H]2CC[C@]2(C)C(=O)CC[C@@H]12 [DHEAS, Dehydroepiandrosterone sulfate, reference compound]","Change of response (%), 30 μM NMDA-induced response",NMDA receptor [1]; steroid 100 μM,+28.8 ± 8.6%
"CC(=O)C1CCC2C3CC=C4CC(OS(=O)(=O)O)CCC4(C)C3CCC12C (stereo not shown) [PS, pregnenolone sulfate]",maximum potentiation of EPSCs,[3],198.2%
same,maximum potentiation of EPSCs,[3]; listed as pregnenolone sulfate,223%
"C[C@]12CC[C@@H]3c4ccc(OC(=O)c5ccccc5)cc4CC[C@H]3[C@@H]1CC[C@@H]2O [β-Estradio1 benzoate, 17β-estradiol benzoate, reference compound]","Change of response (%), 30 μM NMDA-induced response",NMDA receptor [1]; steroid 20 μM,+24.3 ± 18%
